Assay results as given in a collection of fitness landscapes (doi:10.1126/science.1257360).
The other results are listed elsewhere or left out.

B1: PhoQ; a variant is named by its letters at X, in order, P23837 (parent)
chain: MKKLLRLFFPLSLRVRFLLATAAVVLVLSLAYGMVALIGYSVSFDKTTFRLLRGESNLFYTLAKWENNKLHVELPENIDKQSPTMTLIYDENGQLLWAQRDVPWLMKMIQPDWLKSNGFHEIEADVNDTSLLLSGDHSIQQQLQEVREDDDDAEMTHSVAVNVYPATSRMPKLTIVVVDTIPVELKSSYMVWSWFIYVLSANLLLVIPLLWVAAWWSLRPIEALAKEVRELEEHNRELLNPATTRELTSLVRNLNRLLKSERERYDKYRTTLTDLTHSLKTPLXXLQXXLRSLRSEKMSVSDAEPVMLEQISRISQQIGYYLHRASMRGGTLLSRELHPVAPLLDNLTSALNKVYQRKGVNISLDISPEISFVGEQNDFVEVMGNVLDNACKYCLEFVEISARQTDEHLYIVVEDDGPGIPLSKREVIFDRGQRVDTLRPGQGVGLAVAREITEQYEGKIVAGESMLGGARMEVIFGRQHSAPKDE

Variants of: B1
Experiment: enrichment ratio after two sorts for PhoP signalling (ratio (wild type AVST 3.29)); higher = more functional
Conditions: with PhoP (E. coli)

| Variant | enrichment ratio |
| --- | --- |
| FGRQ | ≤ 0.25 |
| SPAS | ≤ 0.25 |
| NNCF | ≤ 0.25 |
| HCSN | ≤ 0.25 |
| MFGW | 2.97 |
| HIWM | ≤ 0.25 |
| SYQI | 0.292 |
| SVHY | ≤ 0.25 |
| QRML | ≤ 0.25 |
| IKRH | ≤ 0.25 |
| WHSE | ≤ 0.25 |
| KSMD | ≤ 0.25 |
| TEHN | 11.9 |
| TRDF | ≤ 0.25 |
| EGGY | ≤ 0.25 |
| TACW | 6.03 |
| VHDW | ≤ 0.25 |
| FPGD | ≤ 0.25 |
| QETQ | ≤ 0.25 |
| HQQR | ≤ 0.25 |
| VQYS | ≤ 0.25 |
| PHCA | ≤ 0.25 |
| FYWR | ≤ 0.25 |
| YMRW | ≤ 0.25 |
| IQWR | ≤ 0.25 |
| GVSG | 7.26 |

| Variant | enrichment ratio |
| --- | --- |
| ATVT | ≤ 0.25 |
| AEPV | ≤ 0.25 |
| LMLM | ≤ 0.25 |
| YYNP | ≤ 0.25 |
| TSIY | ≤ 0.25 |
| ASWQ | ≤ 0.25 |
| PNQW | ≤ 0.25 |
| SYTK | ≤ 0.25 |
| EFLI | ≤ 0.25 |
| FMFY | ≤ 0.25 |
| ESMV | ≤ 0.25 |
| CLDL | ≤ 0.25 |
| KNGN | ≤ 0.25 |
| TYYR | ≤ 0.25 |
| QVMK | ≤ 0.25 |
| QVFW | ≤ 0.25 |
| HMSF | ≤ 0.25 |
| RRIG | ≤ 0.25 |
| IYLG | ≤ 0.25 |
| RIYS | ≤ 0.25 |
| FSIW | ≤ 0.25 |
| ECTP | ≤ 0.25 |
| LWIY | ≤ 0.25 |
| KHSH | ≤ 0.25 |
| DLTA | ≤ 0.25 |
| TNSH | 10.4 |

| Variant | enrichment ratio |
| --- | --- |
| CLTS | ≤ 0.25 |
| DVYE | ≤ 0.25 |
| LLIQ | ≤ 0.25 |
| DKFG | ≤ 0.25 |
| EYPK | ≤ 0.25 |
| ALKM | ≤ 0.25 |
| LFHY | ≤ 0.25 |
| TYWA | ≤ 0.25 |
| AWYV | ≤ 0.25 |
| AFAV | ≤ 0.25 |
| RVIY | ≤ 0.25 |
| SAGW | ≤ 0.25 |
| MGRW | ≤ 0.25 |
| KGHT | ≤ 0.25 |
| MGFF | ≤ 0.25 |
| NMFV | ≤ 0.25 |
| SVQT | ≤ 0.25 |
| RNTI | ≤ 0.25 |
| QRWH | ≤ 0.25 |
| SQTN | 8.46 |
| IRRG | ≤ 0.25 |
| GYMV | 0.333 |
| VWLL | ≤ 0.25 |
| QYYF | ≤ 0.25 |
| ARLA | ≤ 0.25 |
| FHDD | ≤ 0.25 |

| Variant | enrichment ratio |
| --- | --- |
| IWDH | ≤ 0.25 |
| NNGL | ≤ 0.25 |
| ANHQ | ≤ 0.25 |
| RNVL | ≤ 0.25 |
| FSGQ | ≤ 0.25 |
| MAYA | ≤ 0.25 |
| QPAD | ≤ 0.25 |
| NYLG | ≤ 0.25 |
| IYTS | ≤ 0.25 |
| VVYG | ≤ 0.25 |
| RVQN | ≤ 0.25 |
| PHYE | ≤ 0.25 |
| AGVV | 10.2 |
| YVWF | ≤ 0.25 |
| NMAW | ≤ 0.25 |
| PNGE | ≤ 0.25 |
| GMRA | ≤ 0.25 |
| GHNQ | ≤ 0.25 |
| FSAT | ≤ 0.25 |
| DFSI | ≤ 0.25 |
| DQHN | ≤ 0.25 |
| RFTE | ≤ 0.25 |
| SKFK | ≤ 0.25 |
| WQAM | ≤ 0.25 |
| RNVM | ≤ 0.25 |
| VYHA | ≤ 0.25 |

| Variant | enrichment ratio |
| --- | --- |
| DSMT | ≤ 0.25 |
| WRYM | ≤ 0.25 |
| GYPW | ≤ 0.25 |
| HNEI | ≤ 0.25 |
| WDIP | ≤ 0.25 |
| RWTG | ≤ 0.25 |
| YVSM | 0.373 |
| KFLH | ≤ 0.25 |
| ERVS | ≤ 0.25 |
| IWGP | ≤ 0.25 |
| PMPC | ≤ 0.25 |
| SMNF | 5.94 |
| GPRW | ≤ 0.25 |
| HKVC | ≤ 0.25 |
| QARQ | ≤ 0.25 |
| TSYS | 5.38 |
| HPVM | ≤ 0.25 |
| TILE | ≤ 0.25 |
| AVVY | ≤ 0.25 |
| QGLL | 10.4 |
| NLFK | ≤ 0.25 |
| DHHR | ≤ 0.25 |
| MYMM | ≤ 0.25 |
| WCLG | ≤ 0.25 |
| GFIC | ≤ 0.25 |
| YCFA | ≤ 0.25 |

| Variant | enrichment ratio |
| --- | --- |
| MISA | 0.801 |
| GKYH | ≤ 0.25 |
| HDHM | ≤ 0.25 |
| TLPH | ≤ 0.25 |
| HNIM | ≤ 0.25 |
| CYLH | ≤ 0.25 |
| DQNP | ≤ 0.25 |
| RPAI | ≤ 0.25 |
| SYEF | ≤ 0.25 |
| DGFN | ≤ 0.25 |
| NPHQ | ≤ 0.25 |
| FICG | 1.01 |
| PIGS | ≤ 0.25 |
| MSDA | ≤ 0.25 |
| QAKP | ≤ 0.25 |
| MEGW | ≤ 0.25 |
| LPGG | ≤ 0.25 |
| SCPL | 7.57 |
| QDVS | ≤ 0.25 |
| ISCY | ≤ 0.25 |
| YFWI | ≤ 0.25 |
| HPGD | ≤ 0.25 |
| LRCD | ≤ 0.25 |
